Results published in a compilation of properties of binary mixtures (doi:10.1016/j.molliq.2012.09.002).
The densities may have been worked out from excess volumes.

Assay: xn = mol fraction of the nth substance listed
Conditions: 101 kPa

CN(CCO)CCO + CCCCCC[n+]1ccn(C)c1.F[B-](F)(F)F
x1 = 1
Conditions	mass density [kg/m3]
318.15 K	1022.8
323.15 K	1019

CCCCCC[n+]1ccn(C)c1.F[B-](F)(F)F + CN(CCO)CCO
mass density [kg/m3]
Conditions	x2 = 0	x2 = 0.097	x2 = 0.192	x2 = 0.2909	x2 = 0.3916	x2 = 0.4949	x2 = 0.5936	x2 = 0.6935	x2 = 0.7928	x2 = 0.8824
303.15 K	1140.8	1133.5	1126.6	1118.9	–	–	1092.2	1081.1	–	1054.9
308.15 K	1137.4	1129.9	1122.9	1115.3	1107.2	1098.2	1088.4	1077.3	1064.5	1051.2
313.15 K	1134	1126.4	1119.3	1111.6	1103.5	1094.4	–	1073.4	1060.7	–
318.15 K	1130.5	1122.9	1115.7	1107.9	1099.8	–	1080.8	1069.5	1056.7	1043.5
323.15 K	1127.1	1119.3	1111.9	1104.1	1096	1086.8	1076.8	1065.5	1052.6	1039.4
